Where a chain is given by its changes, count along the chain named. These are yes or no findings as the source states them, for the method shown. In cells and extracts the contact can be indirect. Some entries that bind do so weakly or less than the wild type. For some assays here: Where a sequence is shown, tags or fusion partners need not be part of it.

Chains of the proteins cited; added tags and fusions are not shown. Lines headed by an entry give the natural chain unless they say otherwise; changes in a name come on top.
UniProt P48432: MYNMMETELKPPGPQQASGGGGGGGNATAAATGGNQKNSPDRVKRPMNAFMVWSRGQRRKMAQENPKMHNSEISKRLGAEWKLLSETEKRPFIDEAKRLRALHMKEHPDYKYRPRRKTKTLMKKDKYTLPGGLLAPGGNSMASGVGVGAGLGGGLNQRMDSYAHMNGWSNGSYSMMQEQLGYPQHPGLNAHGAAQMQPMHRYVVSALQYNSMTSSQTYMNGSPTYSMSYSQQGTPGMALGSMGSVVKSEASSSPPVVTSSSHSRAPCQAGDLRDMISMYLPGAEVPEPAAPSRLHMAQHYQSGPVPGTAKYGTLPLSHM

The target in assay [1] is T1, Myc-SATB1 (UniProt Q01826).
T1 sequence: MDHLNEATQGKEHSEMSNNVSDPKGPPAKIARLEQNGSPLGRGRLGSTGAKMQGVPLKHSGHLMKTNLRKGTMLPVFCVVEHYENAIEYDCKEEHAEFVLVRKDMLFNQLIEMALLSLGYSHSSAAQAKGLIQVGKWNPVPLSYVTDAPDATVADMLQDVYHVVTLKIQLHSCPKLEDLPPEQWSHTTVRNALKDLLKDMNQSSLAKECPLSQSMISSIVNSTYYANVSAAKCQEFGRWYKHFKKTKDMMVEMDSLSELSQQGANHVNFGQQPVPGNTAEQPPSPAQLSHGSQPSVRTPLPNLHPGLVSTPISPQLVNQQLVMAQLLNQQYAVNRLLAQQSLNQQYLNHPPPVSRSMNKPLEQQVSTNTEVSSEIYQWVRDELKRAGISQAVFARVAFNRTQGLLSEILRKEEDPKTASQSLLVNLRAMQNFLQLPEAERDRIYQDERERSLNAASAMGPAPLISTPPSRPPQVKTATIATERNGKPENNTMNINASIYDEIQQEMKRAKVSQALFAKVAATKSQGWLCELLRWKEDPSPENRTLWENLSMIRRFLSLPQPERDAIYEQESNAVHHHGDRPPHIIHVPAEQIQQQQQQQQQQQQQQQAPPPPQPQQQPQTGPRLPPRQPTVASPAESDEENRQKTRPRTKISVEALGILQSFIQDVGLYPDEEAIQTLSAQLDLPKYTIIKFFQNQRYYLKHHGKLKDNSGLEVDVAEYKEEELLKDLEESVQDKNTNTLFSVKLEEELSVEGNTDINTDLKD
Description: co-IP; tagged proteins co-expressed in HEK293T or HEK293A cells; lysis in modified RIPA buffer (50 mM Tris pH 7.4, 150 mM NaCl, 1 mM EDTA, 1% Nonidet P-40, 0.25% Na-deoxycholate); antibody and protein G-agarose overnight at 4°C; Western blot; for Myc-SATB1/Flag-Sox2 also serum-starved cells with DMSO or with LY294002 plus IGF-1. (In general: In western blotting, separated proteins are transferred to a membrane and probed.)

In assay [2] the target is T2, Myc-SATB1S47A (UniProt Q01826).
T2 sequence: T1 sequence with S47A
The description is as above.

The target of assay [3] is T3, Myc-SATB1S47D (UniProt Q01826).
T3 sequence: T1 sequence with S47D
Described as above.

The target in assay [4] is T1, Myc-SATB1. Put plainly: co-IP; Myc-SATB1 and Flag-Sox2 co-transfected, cells serum starved and treated with the PI3K inhibitor LY294002.
Assay [5] has as its target T4, GST-SATB1 1–204 (UniProt Q01826).
T4 sequence: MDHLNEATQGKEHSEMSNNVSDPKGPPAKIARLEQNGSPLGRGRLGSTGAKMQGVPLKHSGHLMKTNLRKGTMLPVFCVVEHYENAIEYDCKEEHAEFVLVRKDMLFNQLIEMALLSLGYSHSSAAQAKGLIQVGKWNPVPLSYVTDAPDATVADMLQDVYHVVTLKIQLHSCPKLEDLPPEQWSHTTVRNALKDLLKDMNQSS
Put plainly: pull-down; GST or GST fusion proteins on glutathione-Sepharose beads incubated with precleared lysates of transfected HEK293T cells (modified RIPA buffer), 4°C, 2 h; immunoblot; only the target purified.

Assay [6] concerns the target T5, GST-SATB1 496–763 (UniProt Q01826).
T5 sequence: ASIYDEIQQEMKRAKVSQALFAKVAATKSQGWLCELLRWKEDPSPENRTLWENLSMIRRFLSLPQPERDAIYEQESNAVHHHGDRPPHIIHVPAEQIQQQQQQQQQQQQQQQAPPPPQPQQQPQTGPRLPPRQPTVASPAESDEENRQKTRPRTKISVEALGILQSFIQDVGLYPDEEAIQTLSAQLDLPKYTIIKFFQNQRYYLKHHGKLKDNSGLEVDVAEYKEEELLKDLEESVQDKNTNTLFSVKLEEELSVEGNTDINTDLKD
The assay is described as above.

The target of assay [7] is T6, GST-SATB1 52–495 (UniProt Q01826).
T6 sequence: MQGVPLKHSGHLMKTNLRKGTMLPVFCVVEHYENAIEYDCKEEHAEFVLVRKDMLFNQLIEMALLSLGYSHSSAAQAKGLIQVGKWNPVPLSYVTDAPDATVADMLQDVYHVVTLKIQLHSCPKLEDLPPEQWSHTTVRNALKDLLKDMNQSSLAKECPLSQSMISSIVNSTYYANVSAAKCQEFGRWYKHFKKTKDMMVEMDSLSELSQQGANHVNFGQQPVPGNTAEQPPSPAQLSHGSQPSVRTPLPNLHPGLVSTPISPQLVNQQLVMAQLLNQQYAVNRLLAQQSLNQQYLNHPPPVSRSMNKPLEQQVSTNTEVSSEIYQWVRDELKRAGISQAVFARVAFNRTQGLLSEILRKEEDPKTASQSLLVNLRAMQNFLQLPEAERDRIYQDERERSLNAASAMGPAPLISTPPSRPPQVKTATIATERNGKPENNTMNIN
The assay is described as above.

Assay [8] concerns the target T7, endogenous SATB1 (mouse (endogenous in F9)) (UniProt Q60611).
T7 sequence: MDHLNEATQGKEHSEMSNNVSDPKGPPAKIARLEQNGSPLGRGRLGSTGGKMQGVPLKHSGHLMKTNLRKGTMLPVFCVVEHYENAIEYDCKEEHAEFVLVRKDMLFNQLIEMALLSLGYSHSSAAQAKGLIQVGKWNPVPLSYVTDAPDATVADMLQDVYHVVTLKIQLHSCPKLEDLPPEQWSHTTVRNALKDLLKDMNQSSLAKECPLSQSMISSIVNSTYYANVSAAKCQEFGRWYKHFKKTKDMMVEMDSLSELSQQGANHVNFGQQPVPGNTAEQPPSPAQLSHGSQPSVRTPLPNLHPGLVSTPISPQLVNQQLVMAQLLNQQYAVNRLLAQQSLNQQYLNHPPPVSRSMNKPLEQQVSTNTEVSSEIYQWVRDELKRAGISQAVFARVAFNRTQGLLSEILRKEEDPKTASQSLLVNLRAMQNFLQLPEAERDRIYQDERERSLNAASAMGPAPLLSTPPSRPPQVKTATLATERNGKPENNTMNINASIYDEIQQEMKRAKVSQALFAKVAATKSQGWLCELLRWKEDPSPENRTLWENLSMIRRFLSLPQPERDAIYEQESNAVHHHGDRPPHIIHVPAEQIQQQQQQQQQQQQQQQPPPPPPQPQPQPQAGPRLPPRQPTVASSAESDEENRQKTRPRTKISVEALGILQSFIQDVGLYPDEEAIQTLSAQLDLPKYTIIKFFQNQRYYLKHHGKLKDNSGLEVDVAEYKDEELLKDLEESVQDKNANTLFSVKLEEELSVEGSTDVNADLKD
Put plainly: co-IP; endogenous SATB1 immunoprecipitated from F9 cell lysates; blots with anti-SATB1 and anti-Sox2.

Regarding “Flag-GFP-tagged Sox2 1–111 (from UniProt P48432 1-111) (domain or fragment)”, the binding result in assay [1] is on record as “binds”.

In the case of “Flag-GFP-tagged Sox2 1–202 (from UniProt P48432 1-202) (domain or fragment)”, the binding result in assay [1] is recorded as “binds”.

Turning to “Flag-GFP-tagged Sox2 112–202 (from UniProt P48432 112-202) (domain or fragment)”, the binding entry in assay [1] was “binds”.

On to “Flag-GFP-tagged Sox2 112–319 (from UniProt P48432 112-319) (domain or fragment)”, for which the binding result in assay [1] is recorded as “binds”.

In the case of “Flag-GFP-tagged Sox2 203–319 (from UniProt P48432 203-319) (domain or fragment)”, the binding result in assay [1] is listed as “no binding”.

On to “Flag-GFP-tagged Sox2 (full-length) (from UniProt P48432 1-319)”, for which the binding entry in assay [1], in assay [2] and in assay [3] was “binds” throughout.

As for Flag-Sox2 (from UniProt P48432 1-319), the binding entry in assay [4] is “binds weakly”; in assay [1], “binds”.

For “Sox2 (prey of the GST-SATB1 pull-down) (from UniProt P48432 1-319)”, the binding result in assay [5] is given as “no binding”; in assay [6], “no binding”; in assay [7], “binds”.

As for “endogenous Sox2 (from UniProt P48432 1-319)”, the binding result in assay [8] is recorded as “binds”.
